# The other results are listed elsewhere or left out.
# What was measured:
# [1] = biological target: Neu5Gc(a2-8)Neu5Gc(a2-6)Gal(b1-4)GlcNAc; test: glycan array binding signal (z-score within array); higher = stronger binding; details: glycan notation: IUPAC condensed, linker removed
# In short: (§1)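 The binding signal is a Z-score computed within each array and averaged over linkers. Arrays of the same protein sequence at different concentrations or buffers were also averaged together. Data originate from 3228 arrays in the Consortium for Functional Glycomics database, kept only where the protein sequence was available.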
# [2] = biological target: Neu5Gc(b2-6)Gal(b1-4)GlcNAc; test: as above; details: glycan notation: IUPAC condensed, linker removed
# In short: as §1
binder,measurement,setting,value
GS13686A-pdi-553-26-553 (Parabacteroides distasonis) (protein) NENPDKPTDDVNYNMNEPRLASTLRGGLIIEGNVEQRLKPLQIDFYSQMTVDGGGWGTKNYIQDDEWNNLVWEEYLKQIASINIVIRSLTEKDKDAYANTIAFARIWRVYVHTLAADKFGPMPFPAYEIVEANPPYKSLKDIYDEYFRELDAAINGFNDSAQPIFSDAGIDLIYKNDVSKWKRFANSLRLRLAVRLTEVDQEKCIAEANAAISSPAGLISDKADNAYMPPKADGSWGQDYNYTMFQITWSGPICMSKSVEKLVTNIGGVAWPQGVVNQTSGVAVSSVHPEKVDPRAPKIFQPGIENGDWKGLVYGPKAEEANTGIYQSKQCAELGFIIKDGYPYKSRPYDLFLSEEVHFLKAELYARGFIAGDAKSEYEAGVRASFATWGVTSEVDDYLTSTEKNEAGTSARYDDQQGAGNTALEKIITQKYIAGIPDLAQEGWNDKRRLNLPRLDVAVYRDQAVYNNNDKDILKSANFIKRMRYPTKESLINATEYEKGKSMLGGKGDIVSTPLWWDKNSNYCTSSK,glycan array binding signal (z-score),[1],-0.362
same,glycan array binding signal (z-score),[2],-0.044

# Reference: the supplement of paper PMC8728848
